From PubChem BioAssay AID2675 (National Center for Advancing Translational Sciences (NCATS), 2010)
Screen size: about 280,000 compounds; about 100 (0.036%) were called active. The inconclusive results got no clear call from the source; some entries with a clear call stand among them for comparison. The call rests on the fitted dose curve; in most records, active means well fitted inhibition curve with a large enough effect in the signal ratio, with a control signal flat (not every such curve was filed as active); inconclusive means small, poorly fitted or top-dose-only effect, or effect the other way, or a change in a side signal; inactive means no such curve, though single readings can be large or run the other way; the % refers to the signal ratio. Where the call is inconclusive, the potency comes from a doubtful curve fit. “Side channel” marks fits to a control or component signal instead of the main read-out.

target: Muscleblind-like protein 1 (Homo sapiens) (UniProt Q9NR56); test: qHTS Assay for Inhibitors of MBNL1-poly(CUG) RNA binding; settings: TR-FRET MBNL1-His/biotin-(CUG)12 binding, 665/545 ratio; series mostly up to 57.5 µM
Chain of UniProt Q9NR56 (Q9NR56 whole entry, looked up): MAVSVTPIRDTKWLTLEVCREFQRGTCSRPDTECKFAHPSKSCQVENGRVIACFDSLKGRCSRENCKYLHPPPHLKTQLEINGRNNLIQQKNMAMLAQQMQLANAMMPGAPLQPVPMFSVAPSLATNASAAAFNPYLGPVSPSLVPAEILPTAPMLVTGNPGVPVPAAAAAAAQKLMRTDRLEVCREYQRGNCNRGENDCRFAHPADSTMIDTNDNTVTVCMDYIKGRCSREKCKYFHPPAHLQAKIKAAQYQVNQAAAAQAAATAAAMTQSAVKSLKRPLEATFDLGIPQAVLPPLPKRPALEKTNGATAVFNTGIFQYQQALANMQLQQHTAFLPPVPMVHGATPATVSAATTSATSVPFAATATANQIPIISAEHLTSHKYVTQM
Outline: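 TR-FRET between His-tagged MBNL1 and biotin-(CUG)12 RNA, detected with Tb anti-His antibody (0.055 ng/ul) and streptavidin-XL665 (5 nM), 60 min at room temperature. Compounds titrated 92 nM to 58 uM; 665/545 nm ratio normalized to buffer and complex controls.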
Potency means the concentration at half of the fitted maximal effect; tags describe the fitted curve by direction and shape or compound fluorescence and quenching.

| SMILES | Potency |
| --- | --- |
| COc1cccc(CNC(=O)CCNS(=O)(=O)c2cccc3nonc23)c1 | inconclusive: 15.8 µM [quencher, side channel, partial curve] |
| CCCCCC(=O)Nc1cccc(C2=NOC3(C2)C[C@@H](C(N)=O)N(C(=O)c2cc([N+](=O)[O-])cc([N+](=O)[O-])c2)C3)c1 (some centres not stated) | inconclusive: 14.1 µM [quencher, side channel, partial curve] |
| Cc1ccc(NC(=O)c2csc(-c3ccccc3)c2C)cc1 | inactive |
| NC(=S)N/N=C\c1c2ccccc2cc2ccccc12 | inconclusive: 2.82 µM [activator, full curve, poor fit] |
| C/C(=N/NC(=O)c1ccc(O)cc1)c1cccc([N+](=O)[O-])c1 | inconclusive: 25.1 µM [quencher, side channel, partial curve] |
| CCN(CC)S(=O)(=O)c1cccc2c(N(C)C)cccc12 | inactive |
| CSc1ncc(CN2CCCC(C(=O)Nc3ccc(-c4ccco4)cc3)C2)cn1 (configuration not stated) | inactive |
| O=C(CCCN1C(=O)/C(=C/c2ccccc2)SC1=S)Nc1cccc(O)c1 | inconclusive: 25.1 µM [quencher, side channel, single point] |
| COc1cc(/C=C/c2nc3ccc([N+](=O)[O-])cc3s2)ccc1OCC(=O)O | inconclusive: 28.2 µM [quencher, side channel, partial curve] |
| COc1ccc(C(=O)/C=C\N2CCOCC2)cc1 | inconclusive: 3.16 µM [quencher, side channel, single point] |
| O=C(Nc1ccccc1)c1ccc(-c2ccc([N+](=O)[O-])cc2)o1 | inconclusive: 3.16 µM [quencher, side channel, full curve] |
| O=[N+]([O-])c1ccc(N2CCN(CCO)CC2)cc1Sc1nc2ccccc2[nH]1 | inconclusive: 14.1 µM [quencher, side channel, partial curve] |
| CCCC(=O)Nc1ccccc1N1CCN(C(=O)C(C)C)CC1 | inactive |
| Nc1cc(C(=O)N/N=C/c2cccc([N+](=O)[O-])c2)n[nH]c1=O | inconclusive: 14.1 µM [quencher, partial curve] |
| CSc1nc(N)c(C(=O)Nc2ccc([N+](=O)[O-])cc2)s1 | inconclusive: 7.08 µM [quencher, side channel, partial curve] |
| O=C(Nc1ncc2c(n1)-c1ccccc1CC2)c1ccc(Cl)cc1 | inactive |
| O=[N+]([O-])c1ccc(S(=O)(=O)N2CCSC2c2ccco2)cc1 (configuration not stated) | inconclusive: 12.6 µM [quencher, side channel, partial curve] |
| O=C(CNC(=O)c1ccc(-c2ccccc2)cc1)OCc1c(Cl)cccc1Cl | inconclusive: 39.8 µM [quencher, side channel, single point] |
| CC(C)(C)n1nnnc1CN1CCN(C(c2ccccc2)c2ccccc2)CC1 | inconclusive: 0.794 µM [fluorescent, side channel, single point] |

| SMILES | Potency |
| --- | --- |
| COCCCn1c(-c2cccs2)nc2nc3ccccc3nc21 | inconclusive: 15.8 µM [quencher, side channel, partial curve] |
| O=c1c2cccnc2n(-c2ccccc2)n1Cc1c(Cl)cccc1Cl | inactive |
| N#CCCn1cc(/C=N/O)c(-c2cccc([N+](=O)[O-])c2)n1 | inconclusive: 20 µM [quencher, side channel, partial curve] |
| O=C(CCCOc1ccc(Cl)cc1Cl)NCC1CCCO1 (configuration not stated) | inconclusive: 0.282 µM [quencher, side channel, full curve, poor fit] |
| COc1ccccc1N1CCN(C(=O)Nc2ccc([N+](=O)[O-])cc2)CC1 | inconclusive: 15.8 µM [quencher, side channel, single point] |
| O=C(CSc1ncn[nH]1)c1cccc([N+](=O)[O-])c1 | inconclusive: 14.1 µM [quencher, side channel, partial curve] |
| CC(=O)c1ccc(-c2nnc(CCC(=O)N3CCCC(C(=O)CC(C)C)C3)o2)s1 (configuration not stated) | inconclusive: 8.91 µM [quencher, side channel, partial curve] |
| Cc1ccccc1NC(=O)Nc1nc2ccc(S(C)(=O)=O)cc2s1 | inconclusive: 1.58 µM [fluorescent, side channel, partial curve] |
| CC1Oc2ccccc2C=C1/C=N\NC(=O)c1cccnc1 (configuration not stated) | inconclusive: 25.1 µM [quencher, side channel, single point] |
| COc1cc2cccc(OC)c(=O)c2c(OC)c1OC | inconclusive: 22.4 µM [quencher, side channel, partial curve] |
| O=c1c2c(nc3c(-c4ccccc4)c[nH]n13)CCC2 | inactive |
| O=C(O)CN1C(=O)/C(=C\c2cn(CC(=O)N3CCOCC3)c3ccccc23)SC1=S | inconclusive: 39.8 µM [quencher, side channel, single point] |
| Cc1c(NC(=O)CSc2nnc3c4ccccc4n(CCc4ccccc4)c3n2)c(=O)n(-c2ccccc2)n1C | inconclusive: 20 µM [quencher, side channel, partial curve] |
| CCOc1ccc(C2=NNC(c3cccs3)=Nc3ccc(OC)cc32)cc1 | inconclusive: 79.4 µM [inhibitor, single point] |
| CCOC(=O)c1c(-c2ccc(OC)cc2)csc1NC(=O)CCN1C(=O)c2ccccc2C1=O | inactive |
| CCOC(=O)C1(CCCc2ccccc2)CCN(C(=O)c2cnn(CC)c2)CC1 | inconclusive: 15.8 µM [quencher, side channel, single point] |
| Cc1cc(C)cc(-n2c(N)c(C(=O)Nc3c(C)n(C)n(-c4ccccc4)c3=O)c3nc4ccccc4nc32)c1 | inconclusive: 0.126 µM [fluorescent, side channel, full curve, poor fit] |
| O=C(C[n+]1ccc(C(=O)N/N=C/c2ccc(Br)cc2)cc1)c1ccccc1 | inconclusive: 12.6 µM [quencher, side channel, partial curve] |
